Values joined by “and” are separate entries in the source; they are usually repeats but may differ in a detail not shown here. Equal entries are not always repeated. The whole screen tested about 330,000 compounds, of which about 560 (0.17%) were called active. The shares of active, inactive and inconclusive entries below differ from those in the screen. The call rests on the fitted dose curve; in most records, active means well fitted inhibition curve with a large enough effect; inconclusive means small, poorly fitted or top-dose-only effect, or effect the other way; inactive means flat fitted curve, though single readings scatter. Potencies of inconclusive entries are doubtful fits and often do not repeat.
target: ATP-dependent 6-phosphofructokinase (Trypanosoma brucei brucei) (UniProt O15648); experiment: qHTS Assay to Find Inhibitors of T. brucei phosphofructokinase; further: nearly all actives have a fitted effect of over 60% in size; settings: T. brucei PFK, ADP-Glo luminescence; series mostly up to 57.5 µM
Outline: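 PFK 1.25 nM, F6P 0.5 mM, ATP 0.1 mM, 0.1 M TEA pH 8.0, 5 mM MgCl2, 0.01% Tween20, 0.1% BSA; 45 min RT. ADP-Glo readout. qHTS titration up to 57 uM; curves fitted, compounds curve-classed.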
Potency means the concentration at half of the fitted maximal effect; tags describe the fitted curve by direction and shape.

Sequence of UniProt O15648 (O15648 whole entry, looked up): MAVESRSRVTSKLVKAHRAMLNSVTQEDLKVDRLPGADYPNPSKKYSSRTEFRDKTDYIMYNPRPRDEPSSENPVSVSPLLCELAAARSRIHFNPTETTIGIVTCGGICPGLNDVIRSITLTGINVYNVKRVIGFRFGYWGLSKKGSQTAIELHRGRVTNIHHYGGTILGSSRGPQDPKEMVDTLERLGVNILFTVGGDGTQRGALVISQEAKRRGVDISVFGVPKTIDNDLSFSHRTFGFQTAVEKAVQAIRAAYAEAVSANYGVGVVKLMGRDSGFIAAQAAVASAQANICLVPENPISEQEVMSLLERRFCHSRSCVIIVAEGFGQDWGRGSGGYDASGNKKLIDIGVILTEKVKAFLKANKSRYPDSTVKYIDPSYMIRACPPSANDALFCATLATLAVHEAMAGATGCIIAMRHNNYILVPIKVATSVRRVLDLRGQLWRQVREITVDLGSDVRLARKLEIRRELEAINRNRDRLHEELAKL

SMILES	Potency
Cc1cc(C)nc(/N=C(\N)c2c(O)[nH]c(=O)[nH]c2=O)n1	inconclusive: 15.1 µM [falling, partial curve]
O=C(Nc1ccc(Cl)c(Cl)c1)O/N=C/c1ccncc1	active: 8.49 µM
C[C@]12CC[C@H](O)CC1=CC(=O)C1C2CC[C@]2(C)C(=O)CCC12 (some centres not stated)	inactive
O=C(OCC1O[C@@H](OC(=O)c2cc(O)c(O)c(O)c2)[C@@H](OC(=O)c2cc(O)c(O)c(O)c2)[C@@H](OC(=O)c2cc(O)c(O)c(O)c2)[C@@H]1OC(=O)c1cc(O)c(O)c(O)c1)c1cc(O)c(O)c(O)c1 (some centres not stated)	inconclusive: 0.0338 µM [falling, full curve]
CCS(=O)(=O)C1=NN2C(=N)/C(=C\c3ccc(OC(=O)c4ccco4)cc3)C(=O)N=C2S1	inconclusive: 30.1 µM [falling, single point]
CN(C)c1ccc(C=C2C(=O)NC(=O)NC2=O)cc1[N+](=O)[O-]	inactive
Cc1ccc(Cl)cc1NC(=O)C[n+]1ccc(Cc2ccc([N+](=O)[O-])cc2)cc1	inconclusive: 26.9 µM [falling, partial curve]
CCN1C(=O)C(=Cc2ccc(C)s2)C(=O)N(CC)C1=S	inconclusive: 37.9 µM [activator, single point]
O=C(NCc1cccnc1)Nc1ccccc1Cl	inactive
COc1ccc(CN2CCN(C(=O)COc3cccc(C)c3)CC2)c(OC)c1	inactive
Cc1ccc(O)c(C(=O)c2cc(C(=O)NCc3ccccc3)c(=O)n(Cc3ccccc3)c2)c1	inactive
Cc1ccc(-n2sc3ccccc3c2=O)cc1	active: 9.53 µM
C=CCN1C(=O)/C(=C\c2ccc(N3CCOCC3)o2)C(=O)NC1=S	inactive
C[n+]1c(-c2ccccc2)cc(CCCCc2cc(-c3ccccc3)[n+](C)c(-c3ccccc3)c2)cc1-c1ccccc1	inconclusive: 30.1 µM [activator, single point]
Cc1cccc(N2C(=O)NC(=O)/C(=C/c3ccc(-c4ccc(C(=O)O)c(Cl)c4)o3)C2=O)c1	inconclusive: 37.9 µM [activator, single point]
CN(C)[C@@H]1C(=O)C(C(N)=O)=C(O)[C@@]2(O)C(=O)C3=C(O)c4c(O)cccc4[C@@](C)(O)[C@H]3[C@H](O)[C@@H]12	inconclusive: 15.1 µM [falling, partial curve] and inconclusive: 9.53 µM [falling, partial curve]
Clc1cccc(CN2C3=NCCCN3c3ccccc32)c1	inconclusive: 26.9 µM [falling, partial curve]
O=C(CN1CC=C(c2ccccc2)CC1)Nc1cc(Cl)ccc1Cl	inconclusive: 4.78 µM [falling, single point]
O=C(O)Cn1cc(/C=C2\C(=O)NC(=O)N(Cc3ccco3)C2=O)c2ccccc21	inconclusive: 37.9 µM [falling, single point]
OCC[n+]1c2ccccc2nc2ccc(N3CCOCC3)cc21	inconclusive: 12 µM [falling, partial curve]
CCN1C(=O)NC(=O)/C(=C/c2cc(C)n(-c3sc(C)c(C)c3C#N)c2C)C1=O	inconclusive: 30.1 µM [falling, single point]
Nc1ncnc2c1ncn2[C@@H]1O[C@H](COP(=O)(O)OP(=O)(O)OP(=O)(O)O)[C@@H](O)[C@H]1O	inconclusive: 16.9 µM [activator, partial curve]
COc1cccc(CC(=O)Nc2ccc(S(=O)(=O)Nc3nccs3)cc2)c1	active: 19 µM
C[C@]12CC[C@@H]3c4cc(O)c(O)cc4CC[C@H]3[C@@H]1CC[C@@H]2O	inconclusive: 6.01 µM [falling, partial curve]

SMILES	Potency
CCc1nnc(NC(=O)CSc2ccc(-c3ccco3)nn2)s1	inconclusive: 6.75 µM [falling, full curve]
N=c1c2c(n(Cc3ccc(Cl)cc3Cl)c3c1CCC3)CCCC2	inactive
CCOc1cc(C=O)ccc1O	inactive
O=C1NC(=S)N(c2ccccc2F)C(=O)/C1=C\c1cccs1	inactive
CN1C(=O)N(C)C(=O)C2(Cc3cc(N)ccc3N3CCN(c4ccccc4F)CC32)C1=O (configuration not stated)	inconclusive: 37.9 µM [falling, single point]
Cc1ccnc(NS(=O)(=O)c2ccc(NC(=O)Cc3ccc(Br)cc3)cc2)n1	inconclusive: 21.3 µM [falling, partial curve]
C=CCN1C(=O)N/C(=C/c2ccc(C)o2)C1=O	active: 16.9 µM
O=C(O)c1cc[c]([Hg][Cl])cc1	active: 4.26 µM
Cc1cc(OCC(=O)Nc2ccc(S(=O)(=O)N3CCN(C)CC3)cc2)ccc1Cl	active: 26.9 µM
CCN(CC)C(=O)c1ccc2c(c1)C1C=CCC1C(C(=O)O)N2 (configuration not stated)	inconclusive: 26.9 µM [falling, single point]
CN(C)c1ccc(/C=C/C=C2/C(=O)NC(=O)N(c3ccccc3)C2=O)cc1	inconclusive: 1.9 µM [falling, full curve, poor fit]
O=C(c1cc([N+](=O)[O-])ccc1N1CCNCC1)N1CCOCC1	inconclusive: 8.49 µM [falling, single point]
CN(C)C(=O)O/N=C(\N)COc1ccc(C(C)(C)C)cc1	inactive
O=C1NC(=O)N(Cc2ccco2)C(=O)/C1=C/c1cccn1CCOc1ccccc1Cl	inconclusive: 33.8 µM [falling, partial curve]
O=C(Cc1ccc(Br)cc1)N/N=C/c1ccc(-c2cccc(C(=O)O)c2)o1	active: 10.7 µM
CCOC(=O)N(c1ccccc1)P1(=S)OCCO1	inconclusive: 33.8 µM [activator, single point]
CC(NCc1ccccc1Cl)C(O)c1ccccc1 (configuration not stated)	inactive
COc1ccc(OC)c(-n2c(O)c(/C=C3\C=Nc4ccccc43)c(=O)[nH]c2=O)c1	inconclusive: 16.9 µM [activator, partial curve]
C[C@]12CC[C@@H]3c4ccc(O)c(O)c4CC[C@H]3[C@@H]1CC[C@@H]2O	active: 13.5 µM
COc1cccc(NC(=O)[C@@H](NC(=O)N2C[C@H]3C[C@@H](C2)c2cccc(=O)n2C3)C(C)C)c1	inactive
O=C1NC(=O)N(Cc2ccco2)C(=O)/C1=C/C=C/c1ccco1	active: 30.1 µM
COC(=O)C1=C(c2ccc3ccccc3c2)C[C@@H]2CC[C@H]1N2C(=O)NCc1ccco1	inactive
O=C1C=Cc2ccccc2C1=O	inconclusive: 2.69 µM [falling, full curve]
O=C1NC(=O)C(=Cc2ccc(-c3ccc(F)cc3O)o2)C(=O)N1	inconclusive: 37.9 µM [falling, single point]

SMILES	Potency
CCOc1ccc(-n2c(-c3cccs3)nc3ccccc3c2=O)cc1	inactive
CCCCn1c(=O)c(C(=O)Nc2cnccn2)c(O)c2ccccc21	inactive
CC(=O)Nc1ccc(N=Cc2c(O)n(Cc3ccco3)c(=O)[nH]c2=O)cc1	inconclusive: 9.53 µM [falling, partial curve]
Nc1ccnn1C1CCNCC1	inconclusive: 37.9 µM [falling, single point]
NCc1ccccc1COc1ccccc1	active: 23.9 µM
O=c1c(C=Nc2cccnc2Cl)c(O)n(CCCCl)c(=O)n1C1CCCCC1	inactive
CCC(C)N1C(=O)NC(=O)C2(Cc3c(ccc4ccccc34)N(C)C2)C1=O (configuration not stated)	inactive
CCn1c(O)c(C(c2ccccn2)c2c(O)n(CC)c(=S)[nH]c2=O)c(=O)[nH]c1=S	inactive
COCCNC(=O)Cn1cc(/C=C2\C(=O)NC(=O)N(c3cccc(C)c3C)C2=O)c2ccccc21	inconclusive: 26.9 µM [activator, single point]
CCOC(=O)N1CCN(c2ccc(Cl)c(Cl)c2)CC1	inconclusive: 21.3 µM [falling, single point]
O=c1c(O)c(-c2ccc(O)c(O)c2)oc2cc(O)cc(O)c12	inconclusive: 2.69 µM [falling, full curve, poor fit]
COc1ccc(OC(=O)Nc2ccc([N+](=O)[O-])cc2OC)cc1	inconclusive: 37.9 µM [falling, single point]
COc1cc2c(cc1OC)CN(c1ccc([N+](=O)[O-])c(C(F)(F)F)c1)CC2	inconclusive: 21.3 µM [falling, partial curve]
O=C(/C=C/c1ccco1)NCc1ccco1	inconclusive: 21.3 µM [falling, partial curve]
CC(C)N(Cc1ccco1)/N=C/c1c(O)n(Cc2ccccc2)c(=O)[nH]c1=O	inactive
O=C(OCc1ccc(Cl)c(Cl)c1)c1ccccn1	inconclusive: 26.9 µM [falling, single point]
Cc1ccc(CC2C(=O)N(C)C(=O)N(C)C2=O)s1	inactive
CCC(CO)(C(=O)OC1C[N+]2(C)CCC1CC2)c1ccccc1 (configuration not stated)	inactive
c1ccc2c(CCNCc3ccc4c(c3)OCO4)c[nH]c2c1	inconclusive: 37.9 µM [falling, single point]
CCn1c(N)c(C(=O)NC)sc1=S	inconclusive: 2.69 µM [falling, full curve]
CCNS(=O)(=O)c1ccc(NC(=O)Cn2cc([N+](=O)[O-])cn2)cc1	active: 12 µM
CCN(C(=O)CN1CC=C(c2ccccc2)CC1)c1c(N)n(Cc2ccccc2)c(=O)[nH]c1=O	inactive
O=P1(NCCCn2cc[n+](Cc3nc4ccccc4[nH]3)c2)C=C(c2ccccc2)OC(c2ccccc2)=C1	inactive
O=[N+]([O-])c1ccc(Cc2ccncc2)cc1	inconclusive: 23.9 µM [falling, single point]

Reference: PubChem BioAssay AID485367 (National Center for Advancing Translational Sciences (NCATS), 2010)
